This note sets out measurements from paper PMC5892938.

The list shows a part of the results. At the low end of the ranking the order means little.

This experiment has as its target GST-SBP-SLBP (stem-loop binding protein) (UniProt Q14493). Nature of the experiment: targeted RNA Bind-n-Seq.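 Further: DESeq read counts versus GST-SBP nonspecific binding control pulldown.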 Conditions: RBNS binding buffer: 25 mM Tris pH 7.5, 150 mM KCl, 3 mM MgCl2, 0.1% Tween, 0.5 mg/mL BSA, 1 mM DTT; 27 nM protein, 750 pM RNA pool; temperature not stated; high values mean tight binding.
With “GGUCACGUCUCAAUCAACUCUUCCUCCAGGGAAAACCCUGGCUAAUUCAACAGCUCGCAGUCAAG”, the binding signal (log2 fold change) was -0.238.
For “GGUCACGUCUCAAUCAACUCAUCCCCCAGGGAAAGCCCUGGUAAUCUCAACAGCUCGCAGUCAAG”, the binding signal (log2 fold change) was -0.0013.
For the sequence “GGUCACGUCUCAAUCAACUCUUCCCCAGGAGUUUACUCCUGUAUUUUCAACAGCUCGCAGUCAAG”, the binding signal (log2 fold change) was 0.137.
As for “GGUCACGUCUCAAUCAACUCUUUUUCCAGGGAAAUCCCUGGUUUUUUCAACAGCUCGCAGUCAAG”, the figure is -0.223.
As for “GGUCACGUCUCAAUCAACUCUUCUUCAGGAGUUUACUCCUGUUUAUUCAACAGCUCGCAGUCAAG”, the figure is 0.114; as for “GGUCACGUCUCAAUCAACUCCACAGAGGGGGGGAAAACCCCUUUACCCUCACAAUCAACAGCUCGCAGUCAAG”, -0.386.
Consider “GGUCACGUCUCAAUCAACUCAACUUCCAGGGAAAACCCUGGUAAUUUCAACAGCUCGCAGUCAAG”, for which the binding signal (log2 fold change) was -0.208.
For “GGUCACGUCUCAAUCAACUCAGUUUCAGGAGUUUACUCCUGUUUAUUCAACAGCUCGCAGUCAAG”, the binding signal (log2 fold change) is -0.0883.
For the sequence “GGUCACGUCUCAAUCAACUCUCUAGAGGGGGGGAAAACCCCUUUGCCCUCAAUAUCAACAGCUCGCAGUCAAG”, the binding signal (log2 fold change) was -0.438.
In the case of “GGUCACGUCUCAAUCAACUCUUCUUCAGGAGUUUUCUCCUGCUUUGUCAACAGCUCGCAGUCAAG”, the binding signal (log2 fold change) was -0.23.
As for “GGUCACGUCUCAAUCAACUCUACUCCCAGGGAAAGCCCUGGUAUAUUCAACAGCUCGCAGUCAAG”, the figure is 0.0485; as for “GGUCACGUCUCAAUCAACUCAUCUCCCAGGGAAAGCCCUGGUUUACUCAACAGCUCGCAGUCAAG”, 0.0465.
For “GGUCACGUCUCAAUCAACUCAUCGGCCAGGGAAAACCCUGGGAAAUUCAACAGCUCGCAGUCAAG”, the binding signal (log2 fold change) is -0.474.
As for “GGUCACGUCUCAAUCAACUCUAUUUCCAGGGAAAACCCUGGUAUUCUCAACAGCUCGCAGUCAAG”, the figure is -0.151; as for “GGUCACGUCUCAAUCAACUCUUCCCCAGGAGUUUCCUCCUGCUUUUUCAACAGCUCGCAGUCAAG”, 0.181.
As to “GGUCACGUCUCAAUCAACUCAUCUCCAGGAGUUUCCUCCUGCAUUUUCAACAGCUCGCAGUCAAG”, the binding signal (log2 fold change) worked out at 0.0373.
As for “GGUCACGUCUCAAUCAACUCAACUCCCAGGGAAAACCCUGGUUAACUCAACAGCUCGCAGUCAAG”, the figure is 0.03; as for “GGUCACGUCUCAAUCAACUCAUCGCCAGGAGUUUCCUCCUGUAUACUCAACAGCUCGCAGUCAAG”, 0.091.
As for “GGUCACGUCUCAAUCAACUCAUUCCCCAGGGAAACCCCUGGCUAACUCAACAGCUCGCAGUCAAG”, the figure is 0.341.
As for “GGUCACGUCUCAAUCAACUCAACUCCAGGAGUUUCCUCCUGUUUACUCAACAGCUCGCAGUCAAG”, the figure is 0.117.
For “GGUCACGUCUCAAUCAACUCACAAGAGGGGGGGAAAACCCCUUUGCCCUCCACAUCAACAGCUCGCAGUCAAG”, the binding signal (log2 fold change) was found to be 0.146.
With “GGUCACGUCUCAAUCAACUCUACUCCAGGAGUUUCCUCCUGUAUAUUCAACAGCUCGCAGUCAAG”, the binding signal (log2 fold change) was 0.217.
As for “GGUCACGUCUCAAUCAACUCAAUUCCCAGGGAAAGCCCUGGCAUAUUCAACAGCUCGCAGUCAAG”, the figure is -0.122; as for “GGUCACGUCUCAAUCAACUCAUUAGAGGGGGGGAAAACCCCUUUGCCCUCAAUUUCAACAGCUCGCAGUCAAG”, 0.237.
As for “GGUCACGUCUCAAUCAACUCAUUUUCAGGAGUUUCCUCCUGUUUUCUCAACAGCUCGCAGUCAAG”, the figure is -0.0372; as for “GGUCACGUCUCAAUCAACUCAAGUCCAGGAGUUUUCUCCUGCUAUUUCAACAGCUCGCAGUCAAG”, -0.114.
As for “GGUCACGUCUCAAUCAACUCAGUCCCAGGAGUUUACUCCUGUUUAUUCAACAGCUCGCAGUCAAG”, the figure is 0.0578; as for “GGUCACGUCUCAAUCAACUCUUUUUCCAGGGAAACCCCUGGUAGUCUCAACAGCUCGCAGUCAAG”, -0.1; as for “GGUCACGUCUCAAUCAACUCACAAGAGGGGGGGAAAACCCCUUUACCCUCGUCAUCAACAGCUCGCAGUCAAG”, -0.132.
“GGUCACGUCUCAAUCAACUCUUCUCCAGGAGUUUCCUCCUGUAAUCUCAACAGCUCGCAGUCAAG”: the binding signal (log2 fold change) was -0.0655.
As for “GGUCACGUCUCAAUCAACUCAGUUUCAGGAGUUUGCUCCUGCAUUUUCAACAGCUCGCAGUCAAG”, the figure is 0.0209; as for “GGUCACGUCUCAAUCAACUCUUUCUCAGGAGUUUUCUCCUGCAUUUUCAACAGCUCGCAGUCAAG”, -0.204; as for “GGUCACGUCUCAAUCAACUCAAUCUCCAGGGAAAUCCCUGGCAAUCUCAACAGCUCGCAGUCAAG”, 0.0266.
As for “GGUCACGUCUCAAUCAACUCUAAAGAGGGGGGGAAAACCCCUUUACCCUCAACCUCAACAGCUCGCAGUCAAG”, the figure is 0.0753; as for “GGUCACGUCUCAAUCAACUCAUCUCCCAGGGAAAGCCCUGGUAUACUCAACAGCUCGCAGUCAAG”, -0.0898.
With “GGUCACGUCUCAAUCAACUCUUUCGAGGGGGGGAAAACCCCUUUACCCUCACUCUCAACAGCUCGCAGUCAAG”, the binding signal (log2 fold change) was -0.045.
As to “GGUCACGUCUCAAUCAACUCUUUCCCCAGGGAAAGCCCUGGCUUUUUCAACAGCUCGCAGUCAAG”, the binding signal (log2 fold change) is -0.108.
